Assay results as given in the supplement of paper PMC6135742.
Counter-ions that a name gives are not always drawn. ± gives the standard deviation of the averaged measurements. Over roughly 2,600 compounds, “MBP+ mature oligodendrocyte number relative to DMSO vehicle control” has its median near -0.34; the highest 2% begin near 13. Some of the results follow.

Tested on: jimpy (Plp1 jimpy) mouse iPSC-derived oligodendrocyte progenitor cells
Experiment: MBP+ mature oligodendrocyte number relative to DMSO vehicle control (SDs above negative control mean); higher = more surviving jimpy oligodendrocytes (rescue)
Conditions: 10 µM; 3 days
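Note: 10 µM single dose with 3-day oligodendrocyte differentiation.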

Row | Structure (SMILES) | MBP+ mature oligodendrocyte number
1 | COc1ccc2c(c1O)-c1cccc3c1[C@@H](C2)N(C)CC3 [R(-)-Apocodeine hydrochloride] | -1.8
2 | O=c1[nH]oc2c1CCNC2 [THIP hydrochloride] | -0.318
3 | NC(Cc1cc(O)c(O)cc1O)C(=O)O (racemic) [6-Hydroxy-DL-DOPA] | 0.0316
4 | CC(C)Oc1cccnc1N(C)C1CCN(Cc2ccccc2)CC1 | 19.1
5 | O=C(CCCN1CCC2(CC1)C(=O)NCN2c1ccccc1)c1ccc(F)cc1 [Spiperone hydrochloride] | -2.71
6 | CCCN(CCC)C1CCc2ccc(O)cc2C1 (racemic) [(±)-7-Hydroxy-DPAT hydrobromide] | -0.701
7 | COC[C@H]1OC(=O)c2coc3c2[C@@]1(C)C1=C(C3=O)C2CCC(=O)[C@@]2(C)C[C@H]1OC(C)=O (stereo not given in full) [Wortmannin from Penicillium funiculosum] | -0.64
8 | NCC1(CC(=O)O)CCCCC1 [Gabapentin] | 0.659
9 | O=c1cccc2n1C[C@@H]1CNC[C@H]2C1 [Cytisine] | -1.51
10 | CCOC(=O)c1cncn1[C@H](C)c1ccccc1 [Etomidate] | -0.589
11 | CCN1CCN(C(=O)Cc2ccc(Nc3ncc(F)c(Nc4ccc(C(=O)Nc5ccccc5Cl)cc4)n3)cc2)CC1 [Aurora A Inhibitor I] | -6.52
12 | CC(O)(CS(=O)(=O)c1ccc(F)cc1)C(=O)Nc1ccc(C#N)c(C(F)(F)F)c1 (stereo not given) [Bicalutamide] | 3.77
13 | CC(O)(CS(=O)(=O)c1ccc(F)cc1)C(=O)Nc1ccc(C#N)c(C(F)(F)F)c1 (stereo not given) [Bicalutamide (CDX)] | 1.86
14 | CN1CCc2cc3c(cc2C1C1OC(=O)c2c1ccc1c2OCO1)OCO3 (single isomer, unassigned; (+)) [(+)-Bicuculline] | 1.84
15 | Cc1ncsc1CCCl [Chlormethiazole hydrochloride] | -0.119
16 | CCC1(c2ccc(N)cc2)CCC(=O)NC1=O (racemic) [(±)-p-Aminoglutethimide] | -0.433
17 | CN1[C@@H]2C[C@@H](OC(=O)[C@H](CO)c3ccccc3)C[C@H]1[C@@H]1O[C@@H]12 [Scopolamine HBr] | 2.3
18 | CN1[C@@H]2C[C@@H](OC(=O)[C@H](CO)c3ccccc3)C[C@H]1[C@@H]1O[C@@H]12 [(-)-Scopolamine hydrobromide] | 0.146
19 | CN(C)CCc1ccc(O)cc1 [Hordenine] | 0.507
20 | CC(=O)[C@H]1CC[C@H]2[C@@H]3CC[C@H]4C[C@](C)(O)CC[C@]4(C)[C@H]3CC[C@]12C [Ganaxolone] | 0.189
21 | COC1=C[C@@H]2[C@@H]3Cc4ccc(OC)c(O)c4[C@]2(CCN3C)CC1=O [Sinomenine] | -0.724
22 | C/C(=C\c1csc(C)n1)[C@@H]1C[C@@H]2O[C@@H]2CCC[C@H](C)[C@H](O)[C@@H](C)C(=O)C(C)(C)[C@@H](O)CC(=O)O1 [Epothilone A] | -2.95

Row | Structure (SMILES) | MBP+ mature oligodendrocyte number
23 | CO[C@H]1CC[C@@H](O[C@H]2C[C@H]([C@]3(C)CC[C@]4(C[C@H](O)[C@@H](C)[C@@H]([C@@H](C)/C=C(\C)C(=O)[C@H](C)C[C@H](C)C(=O)O)O4)O3)O[C@]3(O[C@@H]([C@H]4O[C@@](O)(CO)[C@H](C)C[C@@H]4C)C[C@@H]3C)[C@@H]2C)O[C@@H]1C [Nanchangmycin] | < -6.7
24 | [O-][n+]1ccccc1[S-].[O-][n+]1ccccc1[S-].[Zn+2] [Zinc Pyrithione] | < -6.35
25 | N[C@@H]1C[C@H]1c1ccccc1 [Tranylcypromine hydrochloride] | -0.961
26 | N[C@@H]1C[C@H]1c1ccccc1 [Tranylcypromine (2-PCPA) HCl] | -1.79
27 | NCC(CC(=O)O)c1ccc(Cl)cc1 (racemic) [(±)-Baclofen] | 0.0385
28 | Cn1c(CCCC(=O)O)nc2cc(N(CCCl)CCCl)ccc21 [Bendamustine hydrochloride] | 0.973
29 | Cn1c(CCCC(=O)O)nc2cc(N(CCCl)CCCl)ccc21 [Bendamustine HCl] | -1.46
30 | O=C1CC[C@@]2(O)[C@H]3Cc4ccc(O)c5c4[C@@]2(CCN3CC2CC2)[C@H]1O5 [Naltrexone hydrochloride] | 1.56
31 | O=C1CC[C@@]2(O)[C@H]3Cc4ccc(O)c5c4[C@@]2(CCN3CC2CC2)[C@H]1O5 [Naltrexone HCl] | 1.51
32 | CN1CC[C@@]2(C)c3cc(O)ccc3N(C)C12 (single isomer, unassigned; (-)) [(-)-Eseroline fumarate] | -1.28
33 | CC(C)[C@]12O[C@H]1[C@@H]1O[C@]13[C@]1(O[C@H]1C[C@H]1C4=C(CC[C@@]13C)C(=O)OC4)[C@@H]2O [Triptolide (PG490)] | < -6.01
34 | CC(=O)[C@H]1CC[C@H]2[C@@H]3CC[C@H]4C[C@H](O)CC[C@]4(C)[C@H]3CC[C@]12C [5alpha-Pregnan-3alpha-ol-20-one] | 1.97
35 | CC(C)(C)c1cc(C=C(C#N)C#N)cc(Br)c1O | 0.72
36 | Oc1ccc2c3c1O[C@H]1c4[nH]c5ccccc5c4C[C@@]4(O)[C@@H](C2)N(CC2CC2)CC[C@]314 [Naltrindole hydrochloride] | -3.77
37 | N[C@]1(C(=O)O)CC[C@H](C(=O)O)C1 (racemic) [trans-(±)-ACPD] | 0.981
38 | CC(NC(C)(C)C)C(=O)c1cccc(Cl)c1 (stereo not given) [Bupropion hydrochloride] | 0.588
39 | CC(NC(C)(C)C)C(=O)c1cccc(Cl)c1 (stereo not given) [Amfebutamone HCl] | 1.68
40 | CN1CCCCC1Cn1cc(C(=O)c2cc([N+](=O)[O-])ccc2I)c2ccccc21 (stereo not given) | -4.97
41 | COC(=O)N1CCN(C(=O)Cc2ccc(Cl)c(Cl)c2)C(CN2CCCC2)C1 (stereo not given) | -0.91
42 | CC(C)NC(C)Cc1ccc(I)cc1 (stereo not given) [Iofetamine hydrochloride] | 7.44
43 | O=c1ccc2cc(O[C@@H]3O[C@H](CO)[C@@H](O)[C@H](O)[C@H]3O)c(O)cc2o1 [Esculin] | 0.955
44 | N=C(NCCC[C@H](N)C(=O)O)N[N+](=O)[O-] [NG-Nitro-L-arginine] | -0.676

Row | Structure (SMILES) | MBP+ mature oligodendrocyte number
45 | c1ccc2c(c1)Nc1ccccc1S2 [Phenothiazine] | 5.9
46 | CCCN(CCC)C1Cc2cc(OC)c(OC)cc2C1 | 3.47
47 | O=C1C=CC[C@@H]2[C@H]3CCCN4CCC[C@@H](CN12)[C@@H]34 [Sophocarpine] | 1.4
48 | CC(=O)O[C@H]1C[C@@H]2CC[C@@H]3[C@H](CC[C@@]4(C)[C@H]3C[C@H]([N+]3(C)CCCCC3)[C@@H]4OC(C)=O)[C@@]2(C)C[C@@H]1[N+]1(C)CCCCC1 [Pancuronium dibromide] | 0.171
49 | CC(=O)O[C@H]1C[C@@H]2CC[C@@H]3[C@H](CC[C@@]4(C)[C@H]3C[C@H]([N+]3(C)CCCCC3)[C@@H]4OC(C)=O)[C@@]2(C)C[C@@H]1[N+]1(C)CCCCC1 [Pancuronium bromide] | -0.206
50 | O=C(NCC1CCOCC1)c1cnc(Nc2ccc(Cl)cc2Cl)nc1C(F)(F)F | 3.28
51 | COC(=O)[C@@H](N)CCCNC(=N)N[N+](=O)[O-] [NG-Nitro-L-arginine methyl ester hydrochloride] | 0.304
52 | C[C@@H]1O[C@H](C[N+](C)(C)C)C[C@H]1O (racemic) [(±)-Muscarine chloride] | -0.245
53 | CP(=O)(O)C1=CCNCC1 | 0.217
54 | Cn1cc(C2=C(c3cn(C4CCN(Cc5ccccn5)CC4)c4ccccc34)C(=O)NC2=O)c2ccccc21 | -5.04
55 | NC(=O)c1cc(N2CC2)c([N+](=O)[O-])cc1[N+](=O)[O-] | -2.2
56 | C=CCN1CC[C@]23c4c5ccc(O)c4O[C@H]2C(=O)CC[C@@]3(O)[C@H]1C5 [Naloxone hydrochloride] | -0.049
57 | C=CCN1CC[C@]23c4c5ccc(O)c4O[C@H]2C(=O)CC[C@@]3(O)[C@H]1C5 [Naloxone HCl] | 1.77
58 | C[C@@H]1CC[C@@]2(OC1)O[C@H]1C[C@H]3[C@@H]4CC=C5C[C@@H](O[C@@H]6O[C@H](CO)[C@@H](O[C@@H]7O[C@@H](C)[C@H](O)[C@@H](O)[C@H]7O)[C@H](O)[C@H]6O[C@@H]6O[C@@H](C)[C@H](O)[C@@H](O)[C@H]6O)CC[C@]5(C)[C@H]4CC[C@]3(C)[C@H]1[C@@H]2C [Dioscin] | < -4.81
59 | CN1CC[C@]2(CCN3CCc4c(oc5ccccc45)[C@@H]3C2)N(C)C1=O | 1.72
60 | Cc1cccc(Cc2c[nH]cn2)c1C [Detomidine HCl] | 10.2
61 | N#CC(C#N)=Cc1ccc(O)c(O)c1 [Tyrphostin 23] | -0.854
62 | COc1ccc2[nH]c3c(c2c1)CCNC3 [6-Methoxy-1,2,3,4-tetrahydro-9H-pyrido[3,4b] indole] | -0.315
63 | CC[C@@H](C(=O)[C@@H](C)[C@@H](O)[C@H](C)[C@@H]1O[C@@H]([C@@H](CC)C(=O)O)CC[C@@H]1C)[C@H]1O[C@]2(C=C[C@@H](O)[C@]3(CC[C@@](C)([C@H]4CC[C@](O)(CC)[C@H](C)O4)O3)O2)[C@H](C)C[C@@H]1C [Salinomycin] | < -4.81
64 | Cc1cccc(C)c1NC(=O)CN1CCCC1=O [Nefiracetam] | 0.839 ± 0.7
65 | NC(=O)CI [Iodoacetamide] | -2.17
